Molecules are shown by their SMILES. Values joined by “and” are separate entries in the source; they are usually repeats but may differ in a detail not shown here. Identical values can stand only once. In all, about 340,000 compounds went through this assay and about 6,900 (2%) were called active. No stated cut-off is given here; in the data, active means inhibition above about 30%; inactive means below that, where a call was filed. The entries are a selection whose mix differs from that of the whole data set. Entries without a call were filed so in the source.

The target in this assay is D(2) dopamine receptor (Homo sapiens) (UniProt P14416). The assay is described as follows: HTS Assay for Allosteric Antagonists of the Human D2 Dopamine Receptor: Primary Screen for Antagonists. Further: 0% is about no effect. The note with it: HEK293 TREx D2 cells, calcium flux, dopamine EC80; at 10 µM; stronger effect = higher value. The method, boiled down: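 Overnight-induced (tetracycline, 30 C) HEK293 T-REx cells carrying force-coupled D2 receive a no-wash calcium dye, then compound, then EC80 dopamine at 180 s; signals are read kinetically throughout.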
Sequence of UniProt P14416 (P14416 whole entry, looked up): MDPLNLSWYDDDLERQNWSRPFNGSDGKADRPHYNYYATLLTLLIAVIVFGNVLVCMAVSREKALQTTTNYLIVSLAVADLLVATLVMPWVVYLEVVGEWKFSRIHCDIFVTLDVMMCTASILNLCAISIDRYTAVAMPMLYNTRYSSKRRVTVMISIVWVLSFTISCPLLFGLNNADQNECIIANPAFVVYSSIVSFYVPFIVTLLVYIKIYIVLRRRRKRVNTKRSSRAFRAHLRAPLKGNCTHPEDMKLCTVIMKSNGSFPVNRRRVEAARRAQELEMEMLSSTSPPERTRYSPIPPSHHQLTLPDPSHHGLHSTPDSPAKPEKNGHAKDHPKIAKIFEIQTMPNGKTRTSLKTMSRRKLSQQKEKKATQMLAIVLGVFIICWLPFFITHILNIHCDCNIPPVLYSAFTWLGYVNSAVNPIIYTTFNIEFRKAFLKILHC
For `Cc1ccc(/C=C/c2onc(C)c2S(=O)(=O)N2CCC(C(=O)NCC(C)c3ccccc3)CC2)cc1` (stereo unspecified), the inhibition worked out at 22.8%. As for `CCn1cc(S(=O)(=O)c2cccc(Cl)c2)c(=O)c2cc(F)c(N3CCN(c4ccccc4)CC3)cc21`, the inhibition came out at 2%. To `Cc1nc2ccn(Cc3cccs3)c(=O)c2cc1C(=O)Nc1ccccc1` belongs 1.54%; to `Cc1ccc(-n2nc(C)c(/C=N/NC(=O)c3cccs3)c2Cl)cc1`, active: 32.5%; to `Cc1ccccc1C(=O)Nc1nc(-c2nnn(-c3ccc(C(C)C)cc3)c2C)ns1`, -2.46%.

For the molecule `Cc1ccc(C(C)C)c(OCCNCc2ccccc2)c1`, the inhibition is active: 67.2%. In the case of `CCOc1ccccc1CNC(=O)C1CCN(S(=O)(=O)c2ccc3c(ccn3C)c2)CC1` it was -11.8%; in that of `Cc1cc(Cl)ccc1NC(=O)CN(c1ccccc1Br)S(C)(=O)=O`, 13.9%. To `CCOc1ccc(C(=O)NCCS(=O)(=O)N2CCN(c3ccccc3F)CC2)cc1OCC` belongs 26.2%. To `CCc1nn2c(=O)cc(COC(=O)c3ccco3)nc2s1` belongs 8.6%. As to `Cc1ccc(-c2cn3c(n2)sc2cc(C(=O)NC(C)C45CC6CC(CC(C6)C4)C5)ccc23)cc1` (stereo unspecified), the inhibition is -23.4%. To `CCOC(=O)C1CCN(S(=O)(=O)c2csc(C(N)=O)c2)CC1` belongs 5.97%. Take `COc1ccc(N2CCN(C(=O)c3cc4c(s3)-c3ccccc3OC4)CC2)cc1`: the inhibition turned out to be 15.8%. To `COc1ccc(N2CC(NC(=O)c3ccc(Br)o3)CC2=O)cc1` (stereo unspecified) belongs 14.2%; to `CCCSc1nc2sc3c(c2c(=O)n1Cc1ccccc1)CC(C)(CC)OC3` (stereo unspecified), -8.47%; to `Cc1ccc(NC(=O)C2CCC(CNS(=O)(=O)c3csc(C(N)=O)c3)CC2)cc1Cl` (stereo unspecified), 3.34%.

Turning to `COc1ccc(C2(CNC(=O)C(=O)Nc3ccc(F)cc3)CCCC2)cc1OC`, the inhibition was determined as 5.72%.

In the case of `COC(=O)c1nnn(-c2cccc(C)c2)c1C(=O)OC`, the inhibition is -2.99%. In the case of `CCc1ccccc1NC(=O)C(=O)NCC(c1cccnc1)N1CCN(c2ccccc2F)CC1` (stereo unspecified), the inhibition is -3.49%.

For the molecule `CCOC(=O)c1c(S(=O)(=O)NCC(=O)Nc2cc(C)ccc2C)c(C)n(C)c1C`, the inhibition was -1.84%. In the case of `CCc1nn(Cc2cc(C)ccc2C)c(=O)c2cc3cc(C)ccc3n12`, the inhibition stood at 13.9%. In the case of `COc1ccc(C(=O)Oc2cc(N)n(S(=O)(=O)c3ccc(C)cc3)n2)cc1` it was active: 38.4%. In the case of `Cc1ccc(NS(=O)(=O)c2ccc3c(c2)CCCN3C(=O)C2CCC2)c(C)c1` it was -22.5%; in that of `CCN1CCN(c2ncc3c(n2)CCN(Cc2ccc(OC(C)C)cc2)C3)CC1`, 13.9%. In the case of `COc1ccc([N+](=O)[O-])cc1/C=N/NC(=O)/C(=C\c1cccs1)NC(=O)c1ccccc1` it was active: 42.8%. Take `Cc1cccc(-c2nc(SCCCOc3ccc(Cl)c(C)c3)n3[nH]c(=O)cc3n2)c1`: the inhibition was determined as 4.44%.

For the molecule `CCOC(=O)c1cccc(NC(=O)NCc2ccc3c(c2)CCN3C(=O)c2ccccc2)c1`, the inhibition is 7.34%.

On to `CCOC(=O)c1ccc(-c2ccc(/C=C(\C#N)C(=O)Nc3ccc(OCC)cc3)o2)cc1`, for which the inhibition was -2.76%. `CCOC(=O)N1CCc2c(sc(NCc3cc(OC)c(OC)cc3OC)c2C(=O)Nc2ccc(OCC)cc2)C1`: the inhibition is -24.8%. For the molecule `CCc1ccc(-n2c(=O)c3cccnc3n2CC(=O)Nc2cc(F)ccc2F)cc1`, the inhibition turned out to be 6.26%. To `CCN(CC)C(=O)Cn1cc(SCC(=O)Nc2ccccc2C)c2ccccc21` belongs 6.3%; to `Oc1cccc(Nc2ncnc3ccccc23)c1`, active: 51%; to `COc1ccc(S(=O)(=O)Cc2ccc(C(=O)N3CCN(c4cc(C)ccc4C)CC3)o2)cc1`, -2.66%. To `O=C(O)c1cccnc1SCc1cccc(Cl)c1` belongs -24.3% and active: 44.6%. To `O=C(Nc1cccc(-c2nc3ccccc3[nH]2)c1)c1c(F)cccc1F` belongs 10.6%.

In the case of `Cc1ccc(C(=O)NCC(=O)OCc2cc(=O)n3nc(C4CC4)sc3n2)cc1`, the inhibition is -3.18%. In the case of `CCOC(=O)c1c(C)oc2nc(C)nc(NCCCN3CCN(c4cc(Cl)ccc4C)CC3)c12` it was 21.2%; in that of `CCOC(=O)c1cccc(NC(=O)Nc2ccc3c(c2)N(C)C(=O)c2ccccc2S3)c1`, 9.57%. `Cc1ccc(-c2noc(-c3nnn(CC(=O)Nc4cccc(C(F)(F)F)c4)c3N)n2)cc1`: the inhibition is 11.6%. In the case of `CCCNC(=O)c1c(NC(=O)c2ccc(C)cc2)sc2c1CCCCC2` it was 7.35%; in that of `CC(=O)N1CCOc2cc(S(=O)(=O)Nc3cc(C(F)(F)F)ccc3Cl)c(C)cc21`, 19.9%; in that of `CCSc1ncc(Cl)c(C(=O)N(Cc2ccc(C(C)(C)C)cc2)C2CCS(=O)(=O)C2)n1` (stereo unspecified), -14.8%. In the case of `COc1ccc2c(c1)c1c(c(=O)n(Cc3ccccc3)c(=O)n1Cc1ccccc1)n2C`, the inhibition is -0.325%. In the case of `c1ccc(CCCNCC2COc3ccccc3O2)cc1` (stereo unspecified) it was active: 85.9%. To `O=C(CSc1nnc(-c2ccncc2)n1-c1ccccc1)Nc1ccc(Br)cc1` belongs 5.62%. In the case of `O=C(COc1ccc(S(=O)(=O)N2CCCCC2)cc1)N1CCCC1` it was active: 31%; in that of `CCOc1cc(C)c(C(C)C)cc1S(=O)(=O)n1ccnc1CC`, 15%; in that of `CCOc1ccc(NC(=O)C2CCN(S(=O)(=O)c3ccc4c(c3)oc(=O)n4C)CC2)cc1`, -11.5%. For `CCOc1ccc2nc(N3CCC(C(=O)Nc4ccc(Br)cc4F)CC3)sc2c1`, the inhibition was -7.32%. In the case of `COc1ccc2c(c1)CC(NC(=O)Nc1ccc(NC(C)=O)cc1)CO2` (stereo unspecified) it was 14.2%; in that of `COc1ccccc1CNC(=O)C1CCN(Cc2cc3ccccc3n2Cc2cccc(C)c2)CC1`, 4.91%; in that of `O=C(NCc1ccccc1Cl)c1ccc(NC(=O)c2nsc3ccccc23)cc1`, -6.5%.

With `Cc1ccccc1Cn1c(=O)n(CCCCC(=O)NCc2ccccc2Cl)c(=O)c2ccccc21`, the inhibition is -3.61%. With `COc1ccc(Cl)cc1NC(=O)Cn1nc(C(F)(F)F)c2c1CCC2`, the inhibition amounted to 8.41%.

For `COc1ccc(CCC(=O)NCc2nc3cccnc3n2Cc2cccc(OC)c2)cc1`, the inhibition is 20.3%. As to `Cc1c(C(=O)Nc2ccccc2Br)oc2ccc(S(=O)(=O)N3CCOCC3)cc12`, the inhibition is -28.6%. To `CCCCc1nn2c(=O)cc(COC(=O)C(C)Oc3ccccc3)nc2s1` (stereo unspecified) belongs 0.606%. As for `CCC1CN(C(=O)N2CCC(C(=O)N3CCN(c4ccc(F)cc4)CC3)CC2)c2ccccc2O1` (stereo unspecified), the inhibition was -4.14%. To `CCOC(=O)N1CCc2c(sc3c2c(=O)n(-c2ccc(CC)cc2)c(=O)n3CC(=O)c2ccccc2)C1` belongs -12%.

On to `Cc1ccc(NC(=O)C2CCN(C(=O)c3cnn(-c4ccccc4)c3-n3cccc3)CC2)cc1`, for which the inhibition amounted to 19.5%.

Turning to `COc1ccc(NS(=O)(=O)c2ccc3c(c2)CCCN3C(=O)C2CCC2)cc1OC`, the inhibition turned out to be 6.02%.
